These are yes or no findings as the source states them, for the method shown. For some of these results: Binding seen in cells or lysates may run through a third protein. Some results given as binding are weak or reduced against the parent protein; the word gives no strength. Tags and fused reporters may be left off the sequences shown.

Sequences of proteins named here, by UniProt entry; tags and fusion partners are left off. A change or cut given only in a name is not applied to a line headed by its entry.
UniProt P62993: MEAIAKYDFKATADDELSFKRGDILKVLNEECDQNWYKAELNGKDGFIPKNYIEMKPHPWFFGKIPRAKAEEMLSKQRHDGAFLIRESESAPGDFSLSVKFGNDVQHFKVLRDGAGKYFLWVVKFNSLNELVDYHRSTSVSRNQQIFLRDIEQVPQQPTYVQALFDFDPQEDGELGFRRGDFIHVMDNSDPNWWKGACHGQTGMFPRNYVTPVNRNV

One assay addresses GST-Grb2 (UniProt P62993). As to the kind of experiment: pull-down; GST, GST-Grb2 or GST-GrpL pre-adsorbed to glutathione-Sepharose beads, incubated 1 h at 4°C with lysates of transfected HEK293T cells (NP-40 lysis buffer, 150 mM NaCl, pH 8.0); five washes; Western blot with anti-GFP; only the target purified. Background: Immunoblotting shows a protein as a band on a membrane.
Another assay deals with T1, GST-GrpL (UniProt O75791).
T1 sequence: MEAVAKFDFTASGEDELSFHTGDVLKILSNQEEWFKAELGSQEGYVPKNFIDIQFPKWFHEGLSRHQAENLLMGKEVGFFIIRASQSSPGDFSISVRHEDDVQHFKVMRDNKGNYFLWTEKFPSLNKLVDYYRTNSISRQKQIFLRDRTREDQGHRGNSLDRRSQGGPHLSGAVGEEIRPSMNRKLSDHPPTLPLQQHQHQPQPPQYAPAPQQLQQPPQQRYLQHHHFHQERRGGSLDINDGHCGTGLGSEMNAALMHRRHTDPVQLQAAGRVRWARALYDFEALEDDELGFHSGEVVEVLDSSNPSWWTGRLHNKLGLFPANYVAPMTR
The description is as above.

Assay [1] has as its target LexA DNA-binding domain fusion of full length human HD-PTP (bait, pBridgeLexA-HD-PTP) (human) (UniProt Q9H3S7). Briefly: two-hybrid; S. cerevisiae L40; bait LexA DNA-binding domain fusion of full length HD-PTP, preys GAL4 activation domain fusions (human colon cDNA library in pGAD-DS, and co-transformed single preys); HIS3 growth on SD-Trp-Leu-His-Met and beta-galactosidase filter assay; v-Src expressed without Met.

As to “EGFP-HD-PTP, full length (from UniProt Q9H3S7 1-1636)”, the binding result with GST-Grb2 and with GST-GrpL was “binds” throughout. As to “GAL4 activation domain fusion of the C-terminal half of Grb2 (amino acid residues 114-217) (from UniProt P62993 114-217) (domain or fragment)”, in assay [1], the binding entry is “binds”. “EGFP-ΔPEST (HD-PTP lacking amino acid residues 1508-1595) (from UniProt Q9H3S7 1-1636)”: the binding entry with GST-GrpL was “binds”.

B1: EGFP-PTPc (1171-1475) (domain or fragment, UniProt Q9H3S7 1171-1475)
chain: LRQLQQELEAFRGQLGDVGALDTVWRELQDAQEHDARGRSIAIARCYSLKNRHQDVMPYDSNRVVLRSGKDDYINASCVEGLSPYCPPLVATQAPLPGTAADFWLMVHEQKVSVIVMLVSEAEMEKQKVARYFPTERGQPMVHGALSLALSSVRSTETHVERVLSLQFRDQSLKRSLVHLHFPTWPELGLPDSPSNLLRFIQEVHAHYLHQRPLHTPIIVHCSSGVGRTGAFALLYAAVQEVEAGNGIPELPQLVRRMRQQRKHMLQEKLHLRFCYEAVVRHVEQVLQRHGVPPPCKPLASASIS
B1: the binding entry with GST-Grb2 and with GST-GrpL was “no binding” in each case.

B2: EGFP-HD (705-1128) (domain or fragment, UniProt Q9H3S7 705-1128)
chain: QQLLDRELKKKPPPRPTAPKPLLPRREESEAVEAGDPPEELRSLPPDMVAGPRLPDTFLGSATPLHFPPSPFPSSTGPGPHYLSGPLPPGTYSGPTQLIQPRAPGPHAMPVAPGPALYPAPAYTPELGLVPRSSPQHGVVSSPYVGVGPAPPVAGLPSAPPPQFSGPELAMAVRPATTTVDSIQAPIPSHTAPRPNPTPAPPPPCFPVPPPQPLPTPYTYPAGAKQPIPAQHHFSSGIPAGFPAPRIGPQPQPHPQPHPSQAFGPQPPQQPLPLQHPHLFPPQAPGLLPPQSPYPYAPQPGVLGQPPPPLHTQLYPGPAQDPLPAHSGALPFPSPGPPQPPHPPLAYGPAPSTRPMGPQAAPLTIRGPSSAGQSTPSPHLVPSPAPSPGPGPVPPRPPAAEPPPCLRRGAAAADLLSSSPESQH
On to B2, for which the binding result with GST-Grb2 and in the assay with GST-GrpL was “binds” throughout.

B3: EGFP-ΔBro1 (705-1636) (domain or fragment, UniProt Q9H3S7 705-1636)
chain: QQLLDRELKKKPPPRPTAPKPLLPRREESEAVEAGDPPEELRSLPPDMVAGPRLPDTFLGSATPLHFPPSPFPSSTGPGPHYLSGPLPPGTYSGPTQLIQPRAPGPHAMPVAPGPALYPAPAYTPELGLVPRSSPQHGVVSSPYVGVGPAPPVAGLPSAPPPQFSGPELAMAVRPATTTVDSIQAPIPSHTAPRPNPTPAPPPPCFPVPPPQPLPTPYTYPAGAKQPIPAQHHFSSGIPAGFPAPRIGPQPQPHPQPHPSQAFGPQPPQQPLPLQHPHLFPPQAPGLLPPQSPYPYAPQPGVLGQPPPPLHTQLYPGPAQDPLPAHSGALPFPSPGPPQPPHPPLAYGPAPSTRPMGPQAAPLTIRGPSSAGQSTPSPHLVPSPAPSPGPGPVPPRPPAAEPPPCLRRGAAAADLLSSSPESQHGGTQSPGGGQPLLQPTKVDAAEGRRPQALRLIERDPYEHPERLRQLQQELEAFRGQLGDVGALDTVWRELQDAQEHDARGRSIAIARCYSLKNRHQDVMPYDSNRVVLRSGKDDYINASCVEGLSPYCPPLVATQAPLPGTAADFWLMVHEQKVSVIVMLVSEAEMEKQKVARYFPTERGQPMVHGALSLALSSVRSTETHVERVLSLQFRDQSLKRSLVHLHFPTWPELGLPDSPSNLLRFIQEVHAHYLHQRPLHTPIIVHCSSGVGRTGAFALLYAAVQEVEAGNGIPELPQLVRRMRQQRKHMLQEKLHLRFCYEAVVRHVEQVLQRHGVPPPCKPLASASISQKNHLPQDSQDLVLGGDVPISSIQATIAKLSIRPPGGLESPVASLPGPAEPPGLPPASLPESTPIPSSSPPPLSSPLPEAPQPKEEPPVPEAPSSGPPSSSLELLASLTPEAFSLDSSLRGKQRMSKHNFLQAHNGQGLRATRPSDDPLSLLDPLWTLNKT
Regarding B3, the binding entry with GST-GrpL is “binds”.

B4: EGFP-Bro1-V (1-704) (domain or fragment, UniProt Q9H3S7 1-704)
chain: MEAVPRMPMIWLDLKEAGDFHFQPAVKKFVLKNYGENPEAYNEELKKLELLRQNAVRVPRDFEGCSVLRKYLGQLHYLQSRVPMGSGQEAAVPVTWTEIFSGKSVAHEDIKYEQACILYNLGALHSMLGAMDKRVSEEGMKVSCTHFQCAAGAFAYLREHFPQAYSVDMSRQILTLNVNLMLGQAQECLLEKSMLDNRKSFLVARISAQVVDYYKEACRALENPDTASLLGRIQKDWKKLVQMKIYYFAAVAHLHMGKQAEEQQKFGERVAYFQSALDKLNEAIKLAKGQPDTVQDALRFTMDVIGGKYNSAKKDNDFIYHEAVPALDTLQPVKGAPLVKPLPVNPTDPAVTGPDIFAKLVPMAAHEASSLYSEEKAKLLREMMAKIEDKNEVLDQFMDSMQLDPETVDNLDAYSHIPPQLMEKCAALSVRPDTVRNLVQSMQVLSGVFTDVEASLKDIRDLLEEDELLEQKFQEAVGQAGAISITSKAELAEVRREWAKYMEVHEKASFTNSELHRAMNLHVGNLRLLSGPLDQVRAALPTPALSPEDKAVLQNLKRILAKVQEMRDQRVSLEQQLRELIQKDDITASLVTTDHSEMKKLFEEQLKKYDQLKVYLEQNLAAQDRVLCALTEANVQYAAVRRVLSDLDQKWNSTLQTLVASYEAYEDLMKKSQEGRDFYADLESKVAALLERTQSTCQAREAAR
For the molecule B4, the binding result with GST-Grb2 and with GST-GrpL was “no binding” in each case.

B5: EGFP-V-domain (401-700) (domain or fragment, UniProt Q9H3S7 401-700)
chain: MQLDPETVDNLDAYSHIPPQLMEKCAALSVRPDTVRNLVQSMQVLSGVFTDVEASLKDIRDLLEEDELLEQKFQEAVGQAGAISITSKAELAEVRREWAKYMEVHEKASFTNSELHRAMNLHVGNLRLLSGPLDQVRAALPTPALSPEDKAVLQNLKRILAKVQEMRDQRVSLEQQLRELIQKDDITASLVTTDHSEMKKLFEEQLKKYDQLKVYLEQNLAAQDRVLCALTEANVQYAAVRRVLSDLDQKWNSTLQTLVASYEAYEDLMKKSQEGRDFYADLESKVAALLERTQSTCQAR
With B5, the binding result with GST-Grb2 and with GST-GrpL was “no binding” in each case.

B6: GAL4 activation domain fusion of the C-terminal SH3 domain of GrpL (amino acid residues 254-330) (domain or fragment, UniProt O75791 254-330)
chain: AALMHRRHTDPVQLQAAGRVRWARALYDFEALEDDELGFHSGEVVEVLDSSNPSWWTGRLHNKLGLFPANYVAPMTR
As for B6, the binding result in assay [1] is recorded as “binds”.

B7: EGFP-VHD (401-1128) (domain or fragment, UniProt Q9H3S7 401-1128)
chain: MQLDPETVDNLDAYSHIPPQLMEKCAALSVRPDTVRNLVQSMQVLSGVFTDVEASLKDIRDLLEEDELLEQKFQEAVGQAGAISITSKAELAEVRREWAKYMEVHEKASFTNSELHRAMNLHVGNLRLLSGPLDQVRAALPTPALSPEDKAVLQNLKRILAKVQEMRDQRVSLEQQLRELIQKDDITASLVTTDHSEMKKLFEEQLKKYDQLKVYLEQNLAAQDRVLCALTEANVQYAAVRRVLSDLDQKWNSTLQTLVASYEAYEDLMKKSQEGRDFYADLESKVAALLERTQSTCQAREAARQQLLDRELKKKPPPRPTAPKPLLPRREESEAVEAGDPPEELRSLPPDMVAGPRLPDTFLGSATPLHFPPSPFPSSTGPGPHYLSGPLPPGTYSGPTQLIQPRAPGPHAMPVAPGPALYPAPAYTPELGLVPRSSPQHGVVSSPYVGVGPAPPVAGLPSAPPPQFSGPELAMAVRPATTTVDSIQAPIPSHTAPRPNPTPAPPPPCFPVPPPQPLPTPYTYPAGAKQPIPAQHHFSSGIPAGFPAPRIGPQPQPHPQPHPSQAFGPQPPQQPLPLQHPHLFPPQAPGLLPPQSPYPYAPQPGVLGQPPPPLHTQLYPGPAQDPLPAHSGALPFPSPGPPQPPHPPLAYGPAPSTRPMGPQAAPLTIRGPSSAGQSTPSPHLVPSPAPSPGPGPVPPRPPAAEPPPCLRRGAAAADLLSSSPESQH
Consider B7, for which the binding entry with GST-Grb2 and with GST-GrpL was “binds” in each case.
